Data as given in PMC7138859.
These are yes or no findings as the source states them, for the method shown. Binding seen in cells or lysates may run through a third protein. Some entries that bind do so weakly or less than the wild type. For some of these results: Where a sequence is shown, tags or fusion partners need not be part of it. Each block holds one molecule with its values, some of them ahead of it.

The chains behind the UniProt entries cited, without tags or fusion partners.
UniProt Q63844: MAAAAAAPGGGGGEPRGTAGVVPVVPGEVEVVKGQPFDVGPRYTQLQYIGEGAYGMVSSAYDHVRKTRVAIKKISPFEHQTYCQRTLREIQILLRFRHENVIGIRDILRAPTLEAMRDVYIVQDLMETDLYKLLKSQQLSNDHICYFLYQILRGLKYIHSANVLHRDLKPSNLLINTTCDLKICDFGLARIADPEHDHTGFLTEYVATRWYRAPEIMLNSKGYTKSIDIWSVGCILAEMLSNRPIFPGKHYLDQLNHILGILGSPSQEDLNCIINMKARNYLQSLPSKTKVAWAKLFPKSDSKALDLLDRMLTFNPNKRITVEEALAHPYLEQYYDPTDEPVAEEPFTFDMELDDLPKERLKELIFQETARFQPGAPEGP
UniProt P52164: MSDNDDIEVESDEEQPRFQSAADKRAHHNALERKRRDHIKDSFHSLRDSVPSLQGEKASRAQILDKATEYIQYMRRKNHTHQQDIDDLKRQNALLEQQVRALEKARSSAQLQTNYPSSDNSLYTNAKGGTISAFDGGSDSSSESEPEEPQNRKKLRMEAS
UniProt P09416: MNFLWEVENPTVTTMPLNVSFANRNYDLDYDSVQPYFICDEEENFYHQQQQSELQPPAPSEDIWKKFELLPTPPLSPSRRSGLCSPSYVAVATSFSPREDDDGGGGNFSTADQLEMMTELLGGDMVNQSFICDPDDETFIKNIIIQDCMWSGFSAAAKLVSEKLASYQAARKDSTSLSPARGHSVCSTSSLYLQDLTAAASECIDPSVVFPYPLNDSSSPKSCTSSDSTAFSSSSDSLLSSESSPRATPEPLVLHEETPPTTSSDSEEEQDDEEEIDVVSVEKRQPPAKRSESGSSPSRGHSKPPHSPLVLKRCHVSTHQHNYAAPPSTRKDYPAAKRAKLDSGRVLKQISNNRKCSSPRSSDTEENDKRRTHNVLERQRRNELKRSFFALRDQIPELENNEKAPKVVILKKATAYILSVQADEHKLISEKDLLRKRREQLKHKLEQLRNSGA

Tests used:
[1] = biological target: ERK1 wild-type (extracellular signal-regulated kinase 1), HA-tagged (mouse) (UniProt Q63844); assay: co-IP; lysates of cells overexpressing the tagged ERKs, stimulated with carbachol or PE, with or without EDI; Flag-ERK2 precipitated with anti-Flag on protein A-sepharose and HA-ERK2 blotted, or HA-ERK1 precipitated with anti-HA and Flag-ERK2 blotted; lysis buffer 1% Triton-X-100, 300 mM NaCl, 50 mM Tris pH 7.4, 5 mM EDTA; 2 h, 4 °C
[2] = biological target: ERK2 wild-type (extracellular signal-regulated kinase 2), Flag-tagged (mouse) (UniProt P63085); assay: condition: only unstimulated cells (without carbachol); cross-linking; HEK293 cells transfected with Flag-ERK2 and myc-EDI, not stimulated; 0.75% PFA, 10 min, RT; SDS-PAGE and western blot
[3] = biological target: ERK2 wild-type (extracellular signal-regulated kinase 2), Flag-tagged (mouse) (UniProt P63085); assay: cross-linking; HEK293 cells transfected with Flag-ERK2 and myc-EDI, stimulated with 300 µM carbachol for 10 min; 0.75% PFA, 10 min, RT; SDS-PAGE and western blot, mobility shift of ERK2
[4] = biological target: transcription factor Max (UniProt P52164); assay: proximity ligation; Myc and Max, PE-induced, with or without EDI; cells not told in the text shown
[5] = biological target: T1, ERK2 wild-type (extracellular signal-regulated kinase 2), Flag-tagged (mouse), P63085; assay: proximity ligation; COS7 cells transfected with HA- and Flag-tagged ERK2, loaded with the JOLU22-penetratin conjugate (30 min, 37 °C, HKR solution), then stimulated with PE; conditions: remark: other sources report otherwise
T1 chain: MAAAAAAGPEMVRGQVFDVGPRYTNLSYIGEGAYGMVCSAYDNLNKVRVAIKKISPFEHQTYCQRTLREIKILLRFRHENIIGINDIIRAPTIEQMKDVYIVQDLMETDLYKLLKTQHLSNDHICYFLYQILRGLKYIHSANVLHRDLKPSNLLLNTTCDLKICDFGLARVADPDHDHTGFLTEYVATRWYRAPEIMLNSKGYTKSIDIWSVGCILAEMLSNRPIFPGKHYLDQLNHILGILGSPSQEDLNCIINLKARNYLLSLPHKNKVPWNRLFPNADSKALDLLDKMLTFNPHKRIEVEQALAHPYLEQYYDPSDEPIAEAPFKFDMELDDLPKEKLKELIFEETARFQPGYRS

[6] = biological target: T1, ERK2 wild-type (extracellular …); assay: co-IP; lysates of cells overexpressing the tagged ERKs, stimulated with carbachol or PE, with or without EDI; Flag-ERK2 precipitated with anti-Flag on protein A-sepharose and HA-ERK2 blotted, or HA-ERK1 precipitated with anti-HA and Flag-ERK2 blotted; lysis buffer 1% Triton-X-100, 300 mM NaCl, 50 mM Tris pH 7.4, 5 mM EDTA; 2 h, 4 °C; conditions: remark: other sources report otherwise
[7] = biological target: T1, ERK2 wild-type (extracellular …); assay: proximity ligation; NRCM transduced with adenoviruses for Flag-ERK2, HA-ERK2 and myc-EDI or LacZ; PE 4 µM, 10 min, 37 °C; fixed cells, Duolink with anti-Flag and anti-HA; conditions: remark: other sources report otherwise

binding [1]: binds
Molecule: ERK2 wild-type (extracellular signal-regulated kinase 2), Flag-tagged (from UniProt P63085 1-358) (enzyme)

binding [4]: binds
Molecule: transcription factor Myc (from UniProt P09416 1-453)

The next lines start with the molecule.

Molecule: ERK-dimerization inhibitory peptide (EDI), myc-ERK2^309–357 (from UniProt P63085 309-357)
binding [2]: no binding
binding [3]: binds

B1: ERK2 wild-type (extracellular signal-regulated kinase 2), Flag-tagged, P63085 1-358 (enzyme)
chain: MAAAAAAGPEMVRGQVFDVGPRYTNLSYIGEGAYGMVCSAYDNLNKVRVAIKKISPFEHQTYCQRTLREIKILLRFRHENIIGINDIIRAPTIEQMKDVYIVQDLMETDLYKLLKTQHLSNDHICYFLYQILRGLKYIHSANVLHRDLKPSNLLLNTTCDLKICDFGLARVADPDHDHTGFLTEYVATRWYRAPEIMLNSKGYTKSIDIWSVGCILAEMLSNRPIFPGKHYLDQLNHILGILGSPSQEDLNCIINLKARNYLLSLPHKNKVPWNRLFPNADSKALDLLDKMLTFNPHKRIEVEQALAHPYLEQYYDPSDEPIAEAPFKFDMELDDLPKEKLKELIFEETARFQPGYRS
binding [5]: binds
binding [6]: binds
binding [7]: binds
